From the supplement of paper PMC12217912
This is one part of the list. Sequences were assembled here from the parent chain. Values near 0.05 are background.

B1: TEV protease; numbered along this chain (parent)
chain: MGESLFKGPRDYNPISSSICHLTNESDGHTTSLYGIGFGPFIITNKHLFRRNNGTLVVQSLHGVFKVKDTTTLQQHLVDGRDMIIIRMPKDFPPFPQKLKFREPQREERICLVTTNFQTKSMSSMVSDTSCTFPSGDGIFWKHWIQTKDGQCGSPLVSTRDGFIVGIHSASNFTNTNNYFTSVPKNFMELLTNQEAQQWVSGWRLNADSVLWGGHKVFMVKPEEPFQPVKEATQL

Variants of: B1
Test: raw area under fraction-flipped curve 0-4 h after induction (AUC4h, not background-subtracted), DNA-recorder readout of cleavage of the substrate (dimensionless); higher = more cleavage of the substrate by the protease variant
Conditions: temperature: 34 °C; time window: 0-4 h after rhamnose induction
Experimental: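 In vivo DNA recorder in E. coli TOP10(DE3) ΔrhaA at 34 °C. Each TEVp single-site mutant (parent TEVp 0) is paired with a single-site variant of the 7-mer TEVs (canonical ENLYFQ|S). The substrate sits between flexible linkers in a Bxb1-sfGFP-TEVs-SsrA fusion, so cleavage stabilises Bxb1 and speeds flipping of a recombination array, read by NGS. The value is the raw area under the fraction-flipped curve over 0-4 h after rhamnose induction (AUC4h), with ≥20 reads per time point. It is not background-subtracted; inactive controls average about 0.047.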
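Note: Bxb1 expression induced with 0.2% (w/v) L-rhamnose at OD600 near 0.5, cultures sampled hourly, flipped fraction per protease–substrate barcode pair counted by paired-end Illumina sequencing.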

Row | Variant | area with substrate CNLYFQS | area with substrate DNLYFQS | area with substrate HNLYFQS | area with substrate INLYFQS | area with substrate KNLYFQS | area with substrate LNLYFQS | area with substrate QNLYFQS | area with substrate SNLYFQS | area with substrate TNLYFQS | area with substrate VNLYFQS | area with substrate WNLYFQS | area with substrate YNLYFQS | area with substrate FNLYFQS | area with substrate MNLYFQS | area with substrate PNLYFQS | area with substrate GNLYFQS | area with substrate NNLYFQS
1 | MGESLFKGPRDYNPISSSICHLTNESDGHTTSLYGIGFGPFIITNKHLFRRNNGTLVVQSLHGVFKVKDTTTLQQHLVDGRDMIIIRMPKDFPPFPQKLKFREPQREERICLVTTNFQTKSMSSMVSDTSCTFPSGDGIFWKHWIQTKDGQCGSPLVSTPDGFIVGIHSASNFTNTNNYFTSVPKNFMELLTNQEAQQWVSGWRLNADSVLWGGHKVFMVKPEEPFQPVKEATQL [R160P] | 0.0584 | 0.0687 | 0.0576 | 0.0546 | 0.0873 | 0.0467 | 0.0572 | 0.0586 | 0.0576 | 0.0684 | 0.056 | 0.0518 |  |  |  |  | 
2 | MGESLFKGPRDYNPISSSICHLTNESDGHTTSLYGIGFGPFIITNKHLFRRNNGTLVVQSLHGVFKVKDTTTLQQHLVDGRDMIIIRMPKDFPPFPQKLKFREPQREERICLVTTNFQTKSMSSMVSDTSCTFPSGDGIFWKHWIQTKDGQCGSPSVSTRDGFIVGIHSASNFTNTNNYFTSVPKNFMELLTNQEAQQWVSGWRLNADSVLWGGHKVFMVKPEEPFQPVKEATQL [L156S] | 0.0682 | 0.0581 | 0.063 | 0.0594 |  | 0.0648 |  | 0.054 | 0.045 |  | 0.0523 |  | 0.056 | 0.0552 | 0.054 |  | 
3 | MGESLFKGPRDYNPISSSICHLTNESDGHTTSLYGIGFGPFIITNKHLFRRNNGTLVVQSLHGVFKVKDTTTLQQHLVDGRDMIIIRMPKDFPPFPQKLKFREPQREERICLVTTNFQTKSMSSMVSDTSCTFPSGDGIFWKHWIQTKDGQCGSPGVSTRDGFIVGIHSASNFTNTNNYFTSVPKNFMELLTNQEAQQWVSGWRLNADSVLWGGHKVFMVKPEEPFQPVKEATQL [L156G] | 0.037 | 0.0619 | 0.0505 | 0.0412 | 0.0627 | 0.0471 |  | 0.0486 | 0.04 | 0.0474 |  | 0.0783 |  | 0.0496 |  | 0.0697 | 
4 | MGESLFKGPRDYNPISSSICHLTNESDGHTTSLYGIGFGPFIITNKHLFRRNNGTLVVQSLHGVFKVKDTTTLQQHLVDGRDMIIIRMPKDFPPFPQKLKFREPQREERICLVTTNFQTKSMSSMVSDTSCTFPSGDGIFWKHWIQTKDGQCGSPCVSTRDGFIVGIHSASNFTNTNNYFTSVPKNFMELLTNQEAQQWVSGWRLNADSVLWGGHKVFMVKPEEPFQPVKEATQL [L156C] | 0.0541 | 0.0766 | 0.064 | 0.0473 | 0.0614 | 0.0731 |  | 0.0519 | 0.069 |  | 0.0625 | 0.0651 |  |  | 0.0575 | 0.0474 | 
5 | MGESLFKGPRDYNPISSSICHLTNESDGHTTSLYGIGFGPFIITNKHLFRRNNGTLVVQSLHGVFKVKDTTTLQQHLVDGRDMIIIRMPKDFPPFPQKLKFREPQREERICLVTTNFQTKSMSSMVSDTSCTFPSGDGIFWKHWIQTKDGQCGSPLVSTRDAFIVGIHSASNFTNTNNYFTSVPKNFMELLTNQEAQQWVSGWRLNADSVLWGGHKVFMVKPEEPFQPVKEATQL [G162A] | 0.0686 | 0.0701 | 0.0304 |  | 0.0574 | 0.0532 |  |  |  |  |  |  |  |  | 0.0585 | 0.0655 | 
6 | MGESLFKGPRDYNPISSSICHLTNESDGHTTSLYGIGFGPFIITNKHLFRRNNGTLVVQSLHGVFKVKDTTTLQQHLVDGRDMIIIRMPKDFPPFPQKLKFREPQREERICLVTTNFQTKSMSSMVSDTSCTFPSGDGIFWKHWIQTKDGQCGSPLVSTRDSFIVGIHSASNFTNTNNYFTSVPKNFMELLTNQEAQQWVSGWRLNADSVLWGGHKVFMVKPEEPFQPVKEATQL [G162S] | 0.0579 | 0.0598 | 0.0354 |  | 0.0643 | 0.0573 |  | 0.0569 | 0.115 |  | 0.0496 |  | 0.0669 |  | 0.0537 | 0.0686 | 
7 | MGESLFKGPRDYNPISSSICHLTNESDGHTTSLYGIGFGPFIITNKHLFRRNNGTLVVQSLHGVFKVKDTTTLQQHLVDGRDMIIIRMPKDFPPFPQKLKFREPQREERICLVTTNFQTKSMSSMVSDTSCTFPSGDGIFWKHWIQTKDGQCGSHLVSTRDGFIVGIHSASNFTNTNNYFTSVPKNFMELLTNQEAQQWVSGWRLNADSVLWGGHKVFMVKPEEPFQPVKEATQL [P155H] | 0.0457 | 0.0547 | 0.0483 | 0.0514 | 0.056 | 0.045 | 0.0368 | 0.0544 | 0.0496 |  | 0.0523 |  |  | 0.0484 | 0.0476 | 0.0501 | 0.0943
8 | MGESLFKGPRDYNPISSSICHLTNESDGHTTSLYGIGFGPFIITNKHLFRRNNGTLVVQSLHGVFKVKDTTTLQQHLVDGRDMIIIRMPKDFPPFPQKLKFREPQREERICLVTTNFQTKSMSSMVSDTSCTFPSGDGIFWKHWIQTKDGQCGSVLVSTRDGFIVGIHSASNFTNTNNYFTSVPKNFMELLTNQEAQQWVSGWRLNADSVLWGGHKVFMVKPEEPFQPVKEATQL [P155V] | 0.0591 | 0.0698 | 0.0734 | 0.0621 |  | 0.06 |  | 0.055 | 0.0637 | 0.0755 | 0.0573 | 0.0348 |  |  | 0.0726 | 0.0635 | 0.0573
9 | MGESLFKGPRDYNPISSSICHLTNESDGHTTSLYGIGFGPFIITNKHLFRRNNGTLVVQSLHGVFKVKDTTTLQQHLVDGRDMIIIRMPKDFPPFPQKLKFREPQREERICLVTTNFQTKSMSSMVSDTSCTFPSGDGIFWKHWIQTKDGQCGSNLVSTRDGFIVGIHSASNFTNTNNYFTSVPKNFMELLTNQEAQQWVSGWRLNADSVLWGGHKVFMVKPEEPFQPVKEATQL [P155N] | 0.055 | 0.0535 |  | 0.0405 | 0.0507 | 0.0485 |  | 0.0413 | 0.0527 | 0.0375 | 0.0392 | 0.024 | 0.049 | 0.0555 | 0.0513 | 0.0474 | 0.0484
